Measured values: PubChem BioAssay AID2676 (National Center for Advancing Translational Sciences (NCATS), 2010)
Out of some 370,000 compounds screened, about 1,100 (0.3%) were called active. Inconclusive results, whose numbers are uncertain, are shown with a selection of clear calls. Calls come from the whole dose curve; as a rule, active = well fitted activation curve with a large enough effect; inconclusive = small, poorly fitted or top-dose-only effect; inactive = flat fitted curve, though single readings scatter. Potencies beside an inconclusive call are fits to weak or partial responses and may not hold up.

These molecules were tested against Relaxin receptor 1 (Homo sapiens) (UniProt Q9HBX9) (assay: qHTS Assay for Agonists of the Relaxin Receptor RXFP1). Conditions: HEK293T-RXFP1 cAMP TR-FRET, 30 min; series mostly up to 57.5 µM.
Text: NIH Chemical Genomics Center [NCGC] NIH Molecular Libraries Probe Production Centers Network [MLPCN] MLPCN Grant: R03 MH085705-01A1 Assay Submitter (PI): Alexander Agoulnik NCGC Assay Overview: The relaxin hormone is involved in the variety of biological functions in normal tissues and diseases. The role of relaxin is well-established in female reproduction and parturition, mammary gland and endometrial development, maintenance of myometrial quiescence during pregnancy. Relaxin signaling through its G protein-coupled receptor (GPCR) RXFP1 results in ECM remodeling through regulation of collagen deposition, cell invasiveness, proliferation and overall tissue homeostasis. […] Recombinant human relaxin (rhRlx) is currently being tested in clinical trials as a protective agent in congestive heart failure, in treating severe preeclampsia, and as an anti-fibrotic agent in systemic sclerosis. Upon relaxin binding RXFP1 activation leads to the activation of adenylate cyclase (AC) via Gs. cAMP will activate PKA, which phosphorylates many signaling proteins. Thus, detection of cAMP increase is an easy and reliable indication of relaxin receptor activation. To screen for agonists of the relaxin receptor, a HEK293T cell line stably transfected with RXFP1 was used. RXFP1 activation was assayed by changes in cAMP levels as detected with a time-resolved fluorescence energy transfer (TR-FRET) cAMP detection kit.
NCGC Assay Protocol Summary: This is a cell-based assay for cAMP second messenger response to screen for agonists of the RXFP1 receptor. The assay was conducted in the presence of a PDE4 inhibitor (Ro 20174). The cells were lysed and the cAMP levels were measured with a TR-FRET cAMP kit. Presence of cAMP in the cell lysate disrupts binding between the cryptate-labeled anti-cAMP and d2-labeled cAMP pair, leading to a decrease in the TR-FRET signal. Data were normalized to the controls for basal activity (buffer only) and 100% activity (29 nM porcine relaxin). The EC50 values were determined from concentration-response data modeled with the standard Hill equation 1536-well assay protocol for the HEK293 RXFP1 cAMP assay: (1) Add 3 ul HEK293 RXFP1 cell culture. 2000 cells/well in DMEM/F12, 10% FBS, 1x Pen/Strep (dispensed offline with MultiDrop Combi). (2) Incubate 16-24 hr at 37C, 5% CO2. (3) Add 1 ul 400uM Ro20174 in DPBS, 0.05% BSA, 0.005% Tween 20. (3) Add 23 nl compounds in DMSO solution. Final concentration was 0.5 - 58 uM. (4) Incubate 30 min at 37C, 5% CO2. (5) Add 1 ul cAMP-d2 in lysis buffer (HTRF cAMP HiRange kit, CisBio). (6) Add 1 ul anti-cAMP antibody-cryptate in lysis buffer (HTRF cAMP HiRange kit, CisBio). (7) Incubate 30 min at room temperature. (6) Detect the assay plate in a ViewLux plate reader (PerkinElmer) with Ex=320 nm, Em1=615 nm and Em2=665 nm. Keywords: relaxin, RXFP1, RXFP2, G-protein coupled receptor, cAMP, agonist, high throughput screening, MLSMR, MLSCN, NIH Roadmap, qHTS and NCGC
Note: nearly all actives have a fitted effect of over 60% in size.
Potency is the fitted concentration of half-maximal effect; tags give direction and shape of the fitted curve.

UniProt Q9HBX9, sequence (Q9HBX9 whole entry, looked up): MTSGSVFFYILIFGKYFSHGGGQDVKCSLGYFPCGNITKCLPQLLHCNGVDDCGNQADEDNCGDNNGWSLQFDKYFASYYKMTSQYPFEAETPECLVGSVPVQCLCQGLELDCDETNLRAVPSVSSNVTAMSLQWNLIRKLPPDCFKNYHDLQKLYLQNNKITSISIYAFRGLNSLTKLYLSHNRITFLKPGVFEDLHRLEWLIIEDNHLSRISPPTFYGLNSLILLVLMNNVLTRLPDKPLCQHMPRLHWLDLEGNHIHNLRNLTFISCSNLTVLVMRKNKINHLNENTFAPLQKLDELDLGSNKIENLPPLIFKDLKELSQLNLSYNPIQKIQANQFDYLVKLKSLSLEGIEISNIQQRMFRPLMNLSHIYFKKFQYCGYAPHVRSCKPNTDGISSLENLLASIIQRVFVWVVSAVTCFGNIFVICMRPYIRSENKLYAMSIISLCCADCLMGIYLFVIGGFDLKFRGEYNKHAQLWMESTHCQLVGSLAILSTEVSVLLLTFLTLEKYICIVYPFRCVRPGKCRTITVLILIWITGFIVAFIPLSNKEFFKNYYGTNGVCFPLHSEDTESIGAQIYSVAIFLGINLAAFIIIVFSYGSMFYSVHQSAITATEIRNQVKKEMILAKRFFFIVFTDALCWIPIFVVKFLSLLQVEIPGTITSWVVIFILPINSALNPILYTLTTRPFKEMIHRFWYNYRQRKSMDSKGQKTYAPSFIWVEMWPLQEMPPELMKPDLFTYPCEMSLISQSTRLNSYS

Potency, active:
Cn1c(=O)c2c(ncn2CCC(=O)N/N=C/c2cccnc2)n(C)c1=O 15.8 µM, COc1ccc(S(=O)(=O)N(C)C)cc1NC(=O)CSc1nncs1 17.8 µM, CNC(=O)NC(=O)CSc1nc(-c2cccs2)c(C#N)c(=O)[nH]1 14.1 µM, Cc1cc(OCc2ccccc2)ccc1/C(O)=C1/C(=O)C(=O)N(Cc2cccnc2)C1c1ccncc1 (configuration not stated) 25.1 µM

Potency, inactive:
N#Cc1c(C(F)(F)F)cc(-c2cccc(Cl)c2)[nH]c1=O, Cc1ccc2c(c1)C(Cc1ccccc1F)C(=O)N2 (configuration not stated), C/C(=N\N=C1/SC(CC(=O)O)C(=O)N1c1ccccc1)c1ccc(C)cc1 (configuration not stated), N#CC1=C(c2ccccc2)/C(=C/c2ccccc2)OC1=O, N#Cc1ccccc1COC(=O)CCCC1=NS(=O)(=O)c2ccccc2N1, CN(CC1CCN(CCc2cccc(C(F)(F)F)c2)CC1)C(=O)c1ccc(F)cc1, CCN(CC)S(=O)(=O)c1ccc(S(=O)(=O)N2CCCC2)cc1, COc1cccc(-c2nnc(SCC(=O)N3CCCc4ccccc43)o2)c1, COc1ccc(-c2cn3nc(N4CCCC(C(=O)Nc5cccc(Cl)c5C)C4)sc3n2)cc1 (configuration not stated), CSc1ccc(/C=N/NC(=O)c2ccc(O)cc2)cc1, Cc1ccc(NC(=O)C2=C(c3ccccc3)S(=O)(=O)CCS2(=O)=O)cc1, CC(=O)c1cccc(NC(=O)CSc2ncc(C(=O)Nc3ccccc3)c(=O)n2C)c1, Clc1ccc(C2=NNC(=NCc3ccccc3)SC2)cc1, O=c1ccc(=O)n(-c2ccccc2)[nH]1, O=C(NCC(c1ccccc1Cl)N1CCCC1)c1ccc(N2CCCC2=O)cc1 (configuration not stated), CNc1sc(C(=O)c2ccc(F)cc2)c(N)c1-c1nc2ccccc2s1, COc1ccc2c(c1)CCc1c(C(=O)Nc3c(C)nn(Cc4c(Cl)cccc4Cl)c3C)noc1-2

Potency, inconclusive:
CC1Cn2c(C(=O)NCc3cccc(Br)c3)cc3cccc(c32)S1 (configuration not stated) 22.4 µM [activator, partial curve], NS(=O)(=O)c1ccc(CCNC(=O)CCCCCn2c(=S)[nH]c3ccc(Br)cc3c2=O)cc1 35.5 µM [activator, single point], Cc1nn(CCCC(=O)NCc2ccc(OC(C)C)cc2)c(=O)c2c1sc1ccccc12 28.2 µM [activator, single point], CCc1ccc(Sc2cc(C(=O)O)c3ccccc3n2)cc1 31.6 µM [activator, partial curve], O=C(CCCCCn1c(=S)[nH]c2ccc(N3CCOCC3)cc2c1=O)NCc1ccccc1Cl 22.4 µM [activator, single point], CCN(CC)S(=O)(=O)c1ccc(N2CCCC2)c(NC(=O)c2nn(C)c(=O)c3ccccc23)c1 28.2 µM [activator, partial curve], COc1cc2c(=O)n(Cc3ccccc3Cl)c(=O)n(CC(=O)Nc3ccc(C)c(C)c3)c2cc1OC 12.6 µM [activator, partial curve], CCOc1ccc(/C(O)=C2/C(=O)C(=O)N(c3ncccn3)C2c2ccc(Cl)cc2)cc1 (configuration not stated) 20 µM [activator, partial curve], Cc1cc(Cl)ccc1OCC(=O)Nc1c(Cl)ccc2nsnc12 35.5 µM [activator, single point], CC(=O)Nc1ccc(C(=O)Nc2nnc(CCc3ccccc3)s2)cc1 39.8 µM [activator, single point], CC(=O)Nc1ccc(/C=C/c2nc(-c3ccccc3O)n(-c3ccccc3)n2)cc1 35.5 µM [activator, single point], CCOc1cc(C2C(C(=O)OC)=CN(C3CCCC3)C=C2C(=O)OC)cc(Br)c1O 31.6 µM [activator, single point], O=C(NC1CCCCC1)c1ccc(Cn2c(SCc3ccc(F)cc3)nc3cccnc32)cc1 35.5 µM [activator, single point], CC(C)OCCCNC(=O)c1cc(Sc2ccc(F)cc2)nc2ccccc12 39.8 µM [activator, single point], CCCSc1nnc(N2C(=O)C(O)=C(C(=O)c3ccco3)C2c2ccccc2F)s1 (configuration not stated) 25.1 µM [activator, partial curve], COc1ccccc1NC(=O)CSc1nc2nccnc2c(=O)n1Cc1cccs1 15.8 µM [activator, partial curve], CC(C)C(=O)Nc1ccccc1OCc1cc(=O)n2ccccc2n1 20 µM [activator, partial curve], CC(C)(C)c1nc(SCC(=O)NC2CCCC2)c2ccccc2n1 22.4 µM [activator, partial curve], CCN1CCc2nc3sc(C(=O)N4CCc5ccccc5C4)c(N)c3cc2C1 22.4 µM [activator, partial curve], CC(=O)c1c(C)[nH]c(C(=O)OCc2cc(=O)n3cc(Br)ccc3n2)c1C 126 µM [activator, partial curve], CCOc1ccc2nc(SCC(=O)Nc3cc(C)on3)c(C)cc2c1 39.8 µM [activator, single point], O=C(COc1cccc2cccnc12)NNC(=S)Nc1ccccc1 39.8 µM [activator, single point], O=C(O)CSc1ncnc2scc(-c3ccc(Br)cc3)c12 22.4 µM [activator, partial curve], Cc1cc(NC(=O)CSc2nc3c(cc2C#N)CCCC3)no1 39.8 µM [activator, single point], Cc1ccc(S(=O)(=O)c2nnn3c2nc(N(C)Cc2ccccc2)c2cc(Cl)ccc23)cc1C 35.5 µM [activator, single point], Cc1sc(NC(=O)C2c3ccccc3Oc3ccccc32)c(C(=O)OC(C)C)c1C 4.47 µM [activator, single point], Cc1oc(-c2cccc(Br)c2)nc1CN1CCC(C(=O)NCc2ccccc2)CC1 28.2 µM [activator, single point], COc1ccc2c(c1)c(=O)c(S(=O)(=O)c1ccc(F)cc1)cn2CC(=O)Nc1ccc(C)cc1C 39.8 µM [activator, single point], CCS(=O)(=O)c1nc(S(=O)(=O)c2ccc(C)cc2)c(N2CCCC2)s1 14.1 µM [activator, partial curve], COc1cc(OC)cc(-n2c(=O)c3sccc3n(Cc3cc(=O)n4c(C)cccc4n3)c2=O)c1 35.5 µM [activator, single point], Cc1nnc2c3ccccc3nc(Nc3ccc(F)cc3Cl)n12 35.5 µM [activator, single point], Cc1ccc(CNC(=O)c2ccc3c(c2)NC(=O)C(CS(=O)(=O)Cc2cccc(C)c2)N3)cc1 (configuration not stated) 35.5 µM [activator, single point], O=C(NCc1cccs1)c1ccc2c(c1)sc1nc(-c3ccccc3)cn12 20 µM [activator, partial curve], COc1cc(-c2noc(-c3cc4cccc(C)c4oc3=O)n2)cc(OC)c1OC 39.8 µM [activator, single point], COc1ccc(/C(O)=C2/C(=O)C(=O)N(c3ccccn3)C2c2ccc(OC)cc2)cc1 (configuration not stated) 17.8 µM [activator, partial curve], O=C(Nc1ccc(Cl)cc1Cl)c1ccc2ncsc2c1 28.2 µM [activator, partial curve], Cc1nnc2ccc(-c3ccc(NC(=O)c4ccco4)cc3)nn12 28.2 µM [activator, single point], CC(=O)N1CCOc2cc(S(=O)(=O)Nc3cc(C(F)(F)F)ccc3Cl)c(C)cc21 25.1 µM [activator, partial curve], CCOc1cccc(C2/C(=C(/O)c3ccc4c(c3)CC(C)O4)C(=O)C(=O)N2Cc2cccnc2)c1 (configuration not stated) 28.2 µM [activator, partial curve], COc1ccc(CNC(=O)CCCn2c(=S)[nH]c3cc4c(cc3c2=O)OCO4)cc1 39.8 µM [activator, single point], O=C1CC(=O)c2c1cccc2[N+](=O)[O-] 25.1 µM [activator, single point], Nc1c(C(=O)NCCc2ccccc2)sc2nc(N3CCOCC3)c3c(c12)CCCC3 31.6 µM [activator, partial curve], CCCCCn1c(=O)[nH]c2cc(C(=O)NCc3ccc(F)cc3)ccc2c1=O 39.8 µM [activator, single point], Cc1cc(NC(=O)CSc2ccc(-c3ccc(Br)cc3)nn2)no1 35.5 µM [activator, single point], Cc1ccc(NC(=O)CSc2nnc(COc3ccccc3C)o2)cc1 20 µM [activator, partial curve], CC(=O)N[C@@H](CC(=O)N[C@H](CCC(=O)O)C(=O)O)C(=O)O 6.31 µM [activator, single point]
